Data taken from paper PMC4336329 (PLoS ONE, 2015).
Hit rate of the full screen: of about 310,000 compounds, about 14,000 (4.5%) showed an effect of 50% or more. The effect is printed as a negative number. The list shows a part of the results.

target: human ether-à-go-go-related gene (hERG) potassium channel (human, UniProt Q12809); assay: primary screen, population patch clamp on CHO cells stably expressing hERG
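Note: peak tail current of the secondary pulse compared with the same well before compound.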

Sequence of human ether-à-go-go-related gene (hERG) potassium channel (Q12809 whole entry, looked up): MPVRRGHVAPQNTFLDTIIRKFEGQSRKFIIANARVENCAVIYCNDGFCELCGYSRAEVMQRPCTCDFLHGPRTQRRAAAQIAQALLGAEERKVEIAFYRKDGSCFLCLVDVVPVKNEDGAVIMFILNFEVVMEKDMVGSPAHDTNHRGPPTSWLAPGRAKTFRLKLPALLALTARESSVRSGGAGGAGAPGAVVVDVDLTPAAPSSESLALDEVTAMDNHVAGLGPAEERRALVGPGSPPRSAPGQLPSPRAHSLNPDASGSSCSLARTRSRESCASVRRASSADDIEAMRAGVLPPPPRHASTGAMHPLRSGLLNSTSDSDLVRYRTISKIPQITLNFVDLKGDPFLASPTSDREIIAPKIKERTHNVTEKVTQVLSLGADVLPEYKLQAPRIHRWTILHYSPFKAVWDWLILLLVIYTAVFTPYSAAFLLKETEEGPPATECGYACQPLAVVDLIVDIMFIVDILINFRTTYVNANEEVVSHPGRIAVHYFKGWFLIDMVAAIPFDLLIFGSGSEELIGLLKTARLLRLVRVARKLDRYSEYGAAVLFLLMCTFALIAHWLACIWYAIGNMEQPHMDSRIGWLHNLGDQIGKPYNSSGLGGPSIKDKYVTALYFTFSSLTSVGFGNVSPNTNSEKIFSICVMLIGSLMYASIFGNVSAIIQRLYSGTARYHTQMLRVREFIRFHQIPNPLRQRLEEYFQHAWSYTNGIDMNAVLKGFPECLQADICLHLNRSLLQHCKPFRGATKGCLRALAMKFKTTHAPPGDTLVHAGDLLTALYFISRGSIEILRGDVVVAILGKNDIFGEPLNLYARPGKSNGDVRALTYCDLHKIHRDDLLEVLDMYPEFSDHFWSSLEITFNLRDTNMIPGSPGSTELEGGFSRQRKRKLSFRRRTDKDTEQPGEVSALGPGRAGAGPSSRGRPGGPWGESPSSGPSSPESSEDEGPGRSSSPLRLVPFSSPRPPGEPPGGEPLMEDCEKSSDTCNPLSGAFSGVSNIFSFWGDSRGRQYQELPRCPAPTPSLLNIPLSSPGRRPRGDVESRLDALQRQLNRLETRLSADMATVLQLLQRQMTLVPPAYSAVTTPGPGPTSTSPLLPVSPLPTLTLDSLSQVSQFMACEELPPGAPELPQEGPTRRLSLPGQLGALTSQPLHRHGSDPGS

| Compound | hERG current change (%, negative = inhibition) at 10uM |
| --- | --- |
| C=CCON/C(CCC)=C1\C(=O)CC(C)(C)CC1=NC | 23.8% |
| O=C(N/C(=C\c1cccnc1)C(=O)N1CCOCC1)c1ccco1 | 1.86% |
| COc1cccc(NC(=O)c2cc(-c3cccnc3)nc3c(Cl)cccc23)c1 | 4.76% |
| CN(C)C(CNC(=O)c1ccc(NC(=O)c2cccs2)cc1)c1ccccc1 (centres unmarked) | 8.18% |
| Cl.Fc1ccc(Nc2nc(N3CCOCC3)nc(N3CCOCC3)n2)cc1 | 4.26% |
| O=C(CSc1nc2ccccc2o1)N/N=C/c1ccccc1C(=O)O | 22.1% |
| Cc1ccc(C)c(C(=O)CC2(O)C(=O)Nc3ccccc32)c1 (centres unmarked) | 1.57% |
| Cc1ccc(S(=O)(=O)N(C)C)cc1NC(=O)COC(=O)C1(c2ccccc2)CC1 | -24.7% |
| O=[N+]([O-])c1cccc(S(=O)(=O)N2CCN(S(=O)(=O)N3CCCCCC3)CC2)c1 | 20.3% |
| O=C(Nc1nc(-c2ccccc2)cs1)C1CCCN(S(=O)(=O)c2ccccc2)C1 (centres unmarked) | -10.4% |
| O=C(Nc1ccc(N2CCN(Cc3ccccc3Cl)CC2)cc1)c1cccnc1 | 5.42% |
| CCOc1cc(C(=O)NCc2ccccc2)ccc1OCC(=O)N1CCCCC1 | -20.3% |
| CCOC(=O)C1=C(COC(=O)CNC(=O)c2ccc(C(C)(C)C)cc2)NC(=O)NC1C (centres unmarked) | -10.4% |
| COc1ccc(C2C(C(C)=O)=C(C)N=c3s/c(=C\c4ccc5c(c4)OCO5)c(=O)n32)c(OC)c1 (centres unmarked) | 17.2% |
| CCN(CC)CCCCCOc1ccccc1OC | 7.04% |
| COc1ccc(CCNC(=O)c2noc(C(C)C)c2[N+](=O)[O-])cc1OC | 12.2% |
| CC(C)(C)c1ccc(-n2ncc3c2CCCC3NC(=O)CCN2CCCO2)cc1 (centres unmarked) | -7.02% |
| O=C(Nc1ccc(F)cc1)C1CCCN(S(=O)(=O)c2ccc3[nH]c(=O)ccc3c2)C1 (centres unmarked) | -11.1% |
| Cc1ccc(CCNS(=O)(=O)c2ccc(C)cc2)cc1 | 5.05% |

| Compound | hERG current change (%, negative = inhibition) at 10uM |
| --- | --- |
| Cc1cccc(-n2c(=O)cc(N3CCN(c4ccc(F)cc4)CC3)[nH]c2=O)c1 | -17.5% |
| OC(c1ccccc1)(c1ccccc1)c1ccncc1 | 18.8% |
| O=C(O)CCCCCn1c(SCc2cc(=O)n3ccccc3n2)nc2ccsc2c1=O | -9.44% |
| O=C(NCCS(=O)(=O)NCc1ccccc1)c1ccccc1 | 4.82% |
| O=C(Cn1c(=S)[nH]c2ccccc2c1=O)NCCc1ccccc1 | 16% |
| CC(=O)c1sc(=S)n(-c2ccccc2)c1C | 9.77% |
| CC1=C(C(=O)OCC2CCCO2)C(c2ccc(Cl)cc2)NC(=O)N1 (centres unmarked) | -8.58% |
| Cc1csc(=O)n1CCC(=O)OCC(=O)Nc1ccc(F)c(F)c1F | -0.344% |
| CN(Cc1ccccc1)C(=O)Nc1ccc(Cl)cc1 | 0.136% |
| COC(=O)c1ccc(NC(=O)CNC(=O)C2CCCCC2)c(C)c1 | 1.8% |
| CCCN1CCN(C2CCCCC2NS(=O)(=O)c2ccc(Cl)cc2)CC1 (centres unmarked) | -63.4% |
| Cc1cc(C)c(OCCCCN2CCC(C)CC2)c(Br)c1 | -72.7% |
| Cc1ccc(C)n1-c1ccc(C(=O)/C=C/N(C)C)cc1 | -11.8% |
| Cc1ccc(Sc2c(C)nn(C(=O)C3CC3)c2C)cc1 | 11.6% |
| COc1ccc(CCC(=O)N2CCN(S(=O)(=O)c3cccc(Cl)c3)CC2)cc1 | -34.8% |
| OCC[C@H]1C[C@H](O)[C@@H](O)[C@]2(Cc3ccccc3CCO2)O1 | 1.22% |
| Cc1cc(NC(=O)CSc2sc3c(O)cc(=O)[nH]c3c2C#N)ccc1Br | 3.12% |
| CCC(=O)N1CCc2cc(S(=O)(=O)CCC(=O)Nc3ccc(OC)cc3)ccc21 | 12.5% |
| NS(=O)(=O)c1ccc(NC(=O)CSc2cn[nH]n2)cc1 | 5.06% |

| Compound | hERG current change (%, negative = inhibition) at 10uM |
| --- | --- |
| CCOC(=O)c1cnc2ccc(C(=O)OC)cc2c1Nc1cccc(C(=O)O)c1.Cl | 4.91% |
| O=C(OCCCOC(=O)c1ccccc1O)c1ccccc1O | -1.3% |
| O=c1[nH]c2cccnc2n1Cc1ccccc1 | 7.67% |
| Cc1cc(S(=O)(=O)Nc2ccc(C(=O)N3CCN(C(=O)c4ccco4)CC3)cc2)ccc1F | -64.4% |
| COC(=O)C(NC(C)=O)(Nc1ccccn1)C(F)(F)F (centres unmarked) | 14% |
| O=C(CCC(=O)c1ccc(Oc2ccccc2)cc1)Nc1cccc(Cl)c1Cl | 8.33% |
| O=C(N/N=C/c1ccc2nccnc2c1)c1ccncc1 | 6.4% |
| O=c1c(-c2ccc(Cl)cc2)cnc2n1CCS2 | 2.45% |
| CCN(CC)c1ccc(NS(=O)(=O)c2ccc(-c3ccc(=O)[nH]n3)o2)c(C)c1 | 11% |
| CC1(C)S[C@@H]2[C@H](NC(=O)COc3ccccc3)C(=O)N2C1C(=O)OCc1ccccc1 (some centres unmarked) | -48.1% |
| COCCn1c(SCC(=O)N2CCCCC2)nc2c(c1=O)SCC2 | -4.63% |
| N#C/C(=C\c1cccc(O)c1)C(=O)Nc1ccc2c(c1)OCCO2 | 4.69% |
| Cc1c(C(=O)NN)[nH]c2ccc([N+](=O)[O-])cc12 | 23.5% |
| O=C1CCCc2c1nc(-c1cccc(Cl)c1)n2O | -5.95% |
| COc1ccccc1C(=O)Nc1ccnn1C1CCN(C(=O)c2ccoc2)CC1 | -47.4% |
| COc1ccc(Nc2nc(N3CCOCC3)nc(N3CCOCC3)n2)cc1Cl | -18.5% |
| C[C@@H]1NC(=O)c2cc([N+](=O)[O-])cc(I)c2NCCCC[C@@H](C(N)=O)NC(=O)[C@H](CC(N)=O)NC1=O | 15.9% |
| S=C(NCc1ccco1)N1CCN(c2nc(-c3ccccc3)cs2)CC1 | 23.7% |
